# PubChem BioAssay AID1461 (National Center for Advancing Translational Sciences (NCATS), 2008)
# The campaign covered roughly 220,000 compounds. About 2,300 (1%) were called active. The inconclusive results got no clear call from the source; some entries with a clear call stand among them for comparison. Calls come from the whole dose curve; as a rule, active = well fitted inhibition curve with a large enough effect; inconclusive = small, poorly fitted or top-dose-only effect, or effect the other way; inactive = no such curve, though single readings can be large or run the other way. No potency is given beside an inconclusive call; the fits are too rough.
# Molecular target: Neuropeptide S receptor (Homo sapiens) (UniProt Q6W5P4)
# Test: qHTS Assay for Antagonists of the Neuropeptide S Receptor: cAMP Signal Transduction; note: nearly all actives have a fitted effect of over 50% in size
# Details: CHO-NPSR cells, cAMP TR-FRET, antagonist mode; series mostly up to 38.3 µM
# Potency is the fitted concentration of half-maximal effect; tags give direction and shape of the fitted curve.
# Chain of UniProt Q6W5P4 (Q6W5P4 whole entry, looked up): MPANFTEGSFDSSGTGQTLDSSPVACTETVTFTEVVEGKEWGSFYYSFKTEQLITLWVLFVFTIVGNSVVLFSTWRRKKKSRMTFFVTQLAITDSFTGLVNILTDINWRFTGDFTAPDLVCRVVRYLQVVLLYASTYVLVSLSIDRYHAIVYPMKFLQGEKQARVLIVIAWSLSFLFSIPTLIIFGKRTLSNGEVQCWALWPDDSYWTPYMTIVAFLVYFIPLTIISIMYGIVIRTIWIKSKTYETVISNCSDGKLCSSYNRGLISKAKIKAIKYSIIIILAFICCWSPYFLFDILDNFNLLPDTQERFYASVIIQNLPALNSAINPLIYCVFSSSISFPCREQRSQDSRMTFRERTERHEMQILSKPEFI
row,Structure (SMILES),Potency
1,Cc1ccc(OCC(=O)N2CCN(c3nnc(-c4ccc(C)cc4)c4ccccc34)CC2)cc1,"inconclusive [inhibitor, full curve, poor fit]"
2,Cc1ccc(Nc2nc3ccccc3o2)cc1F,"inconclusive [activator, single point]"
3,O=C(/C(=C/O)N=Nc1ccccc1)c1ccc(Cl)cc1,"inconclusive [inhibitor, single point]"
4,CCn1c(SCC(=O)N2CCOCC2)nc2c(c1=O)SC(C)C2 (stereo not given),inactive
5,CC1Cc2ccccc2N1C(=O)c1cc2sccc2n1Cc1ccc(F)cc1 (stereo not given),"inconclusive [inhibitor, single point]"
6,Cc1ccc2nc(SCC(=O)NCc3ccco3)c(C#N)cc2c1,"inconclusive [activator, partial curve, poor fit]"
7,COc1cc2ccccc2cc1C(=O)Nc1ccc(S(=O)(=O)Nc2cc(C)on2)cc1,"inconclusive [inhibitor, single point]"
8,CCN(CC)c1ccc(/C=C/C(=O)c2cccnc2)cc1,"inconclusive [inhibitor, single point]"
9,CCOCCn1c(=NC(=O)c2cc(Cl)sc2Cl)sc2cc(S(N)(=O)=O)ccc21,"inconclusive [inhibitor, single point]"
10,CCn1c(=S)sc2c(=O)n(-c3ccccc3)c(SC)nc21,"inconclusive [inhibitor, single point]"
11,C/C(=N\NC(=S)NC(C)C)c1ccc(Cl)s1,"inconclusive [activator, partial curve, poor fit]"
12,CCCC(=O)Nc1ccc2nc(SCC(=O)Nc3ccc(N4CCOCC4)c(Cl)c3)sc2c1,inactive
13,CC1CC(C)(C)n2c(O)c(N=NC(N)=S)c3cccc1c32 (stereo not given),"inconclusive [inhibitor, full curve, poor fit]"
14,O=C(c1ccccc1)[C@@H]1[C@@H](C(=O)c2ccc(F)cc2)[C@@]2(C(=O)Nc3ccccc32)[C@H]2c3ccccc3C=CN12,"inconclusive [inhibitor, single point]"
15,Cc1ccc(S(=O)(=O)n2nc(OC(=O)C3CCCCC3)cc2N)cc1,inactive
16,O=C(N/N=C/c1cc(Br)ccc1O)c1ccncc1,inactive
17,O=C(Nc1nnc(C2CCCCC2)s1)c1ccc(Br)s1,"inconclusive [inhibitor, single point]"
18,O=C(C[n+]1ccccc1)Nc1c(Cl)cc(Cl)cc1Cl,inactive
19,O=C1NN(c2ccccc2)C(=O)/C1=C/c1ccc(Sc2ccc(Cl)cc2)o1,"inconclusive [inhibitor, single point]"
20,Nc1ccc(N2CCCCC2)c(S(=O)(=O)Nc2ccc(Cl)cc2)c1,"inconclusive [activator, single point]"
21,O=C(CSc1ccc2nnc(-c3ccccn3)n2n1)NCc1ccco1,inactive
22,O=S1(=O)N=CN(Cc2cccc(F)c2)c2ccccc21,"inconclusive [inhibitor, single point]"
23,Cc1c(CN2CCC(CO)(CCOc3ccccc3)CC2)[nH]c2ccc(Cl)cc12,"inconclusive [activator, single point]"

row,Structure (SMILES),Potency
1,Cc1ccc(F)cc1NCC(=O)Nc1ccc(Cl)cc1F,inactive
2,Cc1c(N2C(=O)C(=O)/C(=C(/O)c3ccc(Br)cc3)C2c2cccnc2)c(=O)n(-c2ccccc2)n1C (stereo not given),inactive
3,CC(=O)N1CCN(Cc2nc3cc(NC(=O)c4ccc(Cl)cc4)ccc3n2C)CC1,inactive
4,CCC1(CC)Cc2ccccc2C(=O)N1,"inconclusive [inhibitor, single point]"
5,CCCN1CCC(NC(=O)Nc2ccc(OC)c(OC)c2)CC1,"inconclusive [inhibitor, partial curve, poor fit]"
6,COC(=O)C(O)(CC(=O)Nc1ccc(OC)cc1)C(F)(F)F (stereo not given),inactive
7,O=C(Nc1ccccc1)O/N=C1\CCCCC1c1ccc([N+](=O)[O-])cc1[N+](=O)[O-] (stereo not given),"inconclusive [inhibitor, partial curve]"
8,CNc1cccccc1=S,"inconclusive [inhibitor, partial curve, poor fit]"
9,N#Cc1cc2cc3c(cc2nc1N1CCCCC1)OCCO3,"inconclusive [inhibitor, single point]"
10,COc1ccc(CC(=O)Nc2ccc(-c3noc(-c4cccc(OC)c4)n3)cc2)cc1,"inconclusive [inhibitor, single point]"
11,CCOC(=O)N/N=C/c1cn(CCCOc2ccc(C)cc2)c2ccccc12,inactive
12,CCCCN(CC)S(=O)(=O)c1ccc(C(=O)N(CCCN(C)C)c2nc3cc(C)cc(C)c3s2)cc1,active: 10 µM
13,O=C1c2ccccc2C(Nc2ccc(S(=O)(=O)N3CCOCC3)cc2)N1c1ccccn1 (stereo not given),inactive
14,O=C(Nc1ccc(S(=O)(=O)N2CCOCC2)cc1)c1ccco1,inactive
15,CC(C)(C)NS(=O)(=O)c1ccc(CCC(=O)Nc2cc(Cl)ccc2Oc2ccccc2)cc1,"inconclusive [inhibitor, partial curve]"
16,CCCOc1ccc(C2C(=O)N(C3CCCCC3)CC(=O)N2C2CC2)cc1OC (stereo not given),"inconclusive [inhibitor, single point]"
17,Cc1cc(C)cc(N(C(=O)c2sc(C)nc2C)C(C(=O)NCc2ccco2)c2ccccc2)c1 (stereo not given),"inconclusive [inhibitor, single point]"
18,O=C1CN(C(=O)CNCc2ccc(Cl)cc2)c2ccccc2N1,inactive
19,CCOC(=O)C1CCCN(C(=O)Cn2sc3nc(C)cc(C)c3c2=O)C1 (stereo not given),"inconclusive [inhibitor, single point]"
20,CC(=O)c1sc(N/N=C\c2ccccc2O)nc1C,active: 1.58 µM
21,CCCc1cc(=O)[nH]c(SCC(=O)c2ccc3c(c2)NC(=O)CO3)n1,inactive
22,O=C1CSC(c2ccc3c(c2)OCO3)N1c1ccc(Oc2ccccc2)cc1 (stereo not given),"inconclusive [inhibitor, partial curve]"
